± gives the standard deviation of the averaged measurements. Some of the results follow.
System: PfAP2-LT AP2 domain (GST-tagged)
Assay: gcPBM binding intensity (ln(normalized median fluorescence intensity)); higher = stronger DNA binding
How it was run: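 An Agilent 4 × 180k array of primer-extended double-stranded 36-bp intergenic genomic probes, with negative controls, was incubated for 1 h with GST-tagged P. falciparum DNA-binding domains expressed in E. coli. Alexa488 anti-GST antibody detected bound protein, scanned at 488 nm. Binding intensity is the highest Masliner-normalised natural-log median intensity across replicate spots of either probe orientation.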

Row | Sequence | gcPBM binding intensity (ln)
1 | CTTAATATGGATATTGCATGTAGAACATGAACAATA [TGCATGCA_site760] | 8.63 ± 0.4
2 | TTAACAAATAAATGCACACATATATATAAATAATAT [CACACA_site28] | 9.01 ± 0.38
3 | TTATGCTCAAAGAAAAGTACATAAATAAAAGTATAT [XGTACX_site7365] | 8.73 ± 0.45
4 | TTCTTCAATATATTCTTACACACTTAAAAAAAAAAA [CACACA_site228] | 8.27 ± 0.35
5 | TAAACACCCATACATACACACATACATACACCCATA [CACACA_site5125] | 9.63 ± 0.18
6 | ATATATATATATATATGTACATAATGCATATAATAT [XGTACX_site6142] | 9.39 ± 0.028
7 | TTAATACTTTTTTCTGTACACACTTGATTTACTATA [CACACA_site2799] | 9.03 ± 0.42
8 | GAAGGAAAAGATACGATAAAATAAGATATTAATTTA [GTGCAC_negctrl_site419] | 8.61 ± 0.62
9 | TTTTTTTTTTTTTATTGTACATACTTTTAAATATAT [XGTACX_site4303] | 8.71 ± 0.42
10 | GTATATAAATAAATAGTGCATTATTAAAAATAATGT | 8.85 ± 0.47
11 | GTATACAACATATGAACACACAAAATATTTTTTTTT [CACACA_site2928] | 8.98 ± 0.45
12 | TATCTCCACAAAAGATGTACTCATATTAATTTATAA [XGTACX_site3535] | 8.27 ± 0.39
13 | TTAAAGCTTGCATATACACACATACATAAATTCATA [CACACA_site7208] | 8.9 ± 0.4
14 | TAAAAGTTGAAGCACACACACAAAAGAAATACAATA [CACACA_site6649] | 9.77 ± 0.49
15 | ATATATTTATATTTTTGTACCCAAAATTGTTTGATG [XGTACX_site3581] | 8.73 ± 0.52
16 | ATTGAGGCTGGTTATATAATAATTTTATTATTTTAG [GTGCAC_negctrl_site409] | 8.74 ± 0.36
17 | TTTGTTATATTTAATACACACATATTATAAACACAT [CACACA_site7703] | 8.98 ± 0.38
18 | TATGAAAAGTAAAGTACACACAGGAAAAAAAAAAAA [CACACA_site1749] | 9.19 ± 0.52
19 | TATATAATATATTTATGTACTCACAATGGGGTCTAC [XGTACX_site2691] | 8.86 ± 0.49
20 | AAAATATATAAACGCACATATATTTATGTATATATA [CACACA_negctrl_site163] | 8.89 ± 0.42
21 | TAAAAAAAAACATGATGTACATAAAATTTTTTACTT [XGTACX_site7056] | 8.59 ± 0.47
22 | TACATATATTTAAGGAGTACAAAAAATAATGATAAA [XGTACX_site3539] | 8.74 ± 0.45
23 | TTATTAGAGATGTTAAGATATAGGGATAATTTCGAT [XGTACX_negctrl_site395] | 8.4 ± 0.48
24 | AAAAGGGAAAAAATTAAAATTATATATATATATATG [CACACA_negctrl_site137] | 8.52 ± 0.39

Reference: the supplement of paper PMC11417369
